# Measured values: PubChem BioAssay AID588855 (National Center for Advancing Translational Sciences (NCATS), 2011)
# The campaign covered roughly 410,000 compounds. About 5,000 (1.2%) were called active. The inconclusive results got no clear call from the source; some entries with a clear call stand among them for comparison. The call rests on the fitted dose curve; in most records, active means well fitted inhibition curve with a large enough effect; inconclusive means small, poorly fitted or top-dose-only effect; inactive means no such curve, though single readings can be large or run the other way. Where the call is inconclusive, the potency comes from a doubtful curve fit.
# Assay: qHTS for Inhibitors of TGF-b; further: nearly all actives have a fitted effect of over 65% in size
# Settings: HepG2 CAGA-GFP TGF-b/SMAD3 reporter, GFP fluorescence, 18 h, TGF-beta stimulated, 500 pg/mL final; series mostly up to 46.1 µM
# In short: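 Inhibition was scored as loss of TGF-beta-induced (500 pg/mL final, 18 hours, 37 degrees C) GFP in HEPG2 cells carrying a CAGA-GFP reporter, in DMEM with 1% FBS. Well GFP was summed per cell; Activity was normalised to unstimulated and stimulated DMSO wells, then concentration-response fitting.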
# Potency means the concentration at half of the fitted maximal effect; tags describe the fitted curve by direction and shape.
row,SMILES,Potency
1,CN(Cc1ccccc1)C(=O)c1cccc(NC(=O)Cc2ccc(NC(=O)C3CCCN(C(=O)CCc4ccccc4)C3)cc2)c1 (configuration not stated),inactive
2,CCOC(=O)c1ccc(NC(=O)c2nc(SC(C)C)ncc2Cl)cc1,inactive
3,Cc1cc(NC(=O)/C=C/C(=O)N(c2ccccc2C)C(C(=O)NC2CCCC2)c2ccc(F)cc2)no1 (configuration not stated),"inconclusive: 17.8 µM [inhibitor, single point]"
4,Cc1oc(-c2cccc(C(F)(F)F)c2)nc1CN1CCN(c2ccccn2)CC1,"inconclusive: 11.2 µM [inhibitor, partial curve]"
5,COc1ccc(Nc2nc(-c3cccs3)nc3ccccc23)cc1S(=O)(=O)N1CCOCC1,"inconclusive: 35.5 µM [inhibitor, partial curve, poor fit]"
6,Cc1nc2c(-c3ccccc3)c(C)nn2c(C)c1CCC(=O)NCc1ccc(Cl)cc1,inactive
7,CC(=O)Nc1ccc(NC(=O)COC(=O)CCc2nc3ccccc3s2)cc1,inactive
8,CC(=O)C[C@H](O)CC(=O)[C@H]1OC(=O)[C@H](C)C/C=C\Cc2ccccc21,inactive
9,CCCc1cnc2c(c1SCC(=O)Nc1c(C)cc(C)cc1C)c(=O)n(C)c(=O)n2C,"inconclusive: 0.501 µM [inhibitor, partial curve, poor fit]"
10,CCCN(c1ccccc1F)S(=O)(=O)c1cc(-c2cc(C)no2)ccc1OC,"inconclusive: 15.8 µM [inhibitor, single point]"
11,Cc1ccc(CN2CCSCC2)c(C)c1,inactive
12,O=c1ccc2cc(S(=O)(=O)N3CCN(c4ccccc4F)CC3)ccc2[nH]1,"inconclusive: 35.5 µM [inhibitor, single point]"
13,Cc1cccc(-c2nc(CN3CCCC(C(=O)NCc4ccc(Cl)cc4)C3)c(C)o2)c1 (configuration not stated),"inconclusive: 3.98 µM [inhibitor, full curve, poor fit]"
14,O=C1c2ccccc2-c2cccc(NS(=O)(=O)c3ccc(C(F)(F)F)cc3)c21,"inconclusive: 0.112 µM [inhibitor, full curve, poor fit]"
15,COc1ccc(NC(=O)Cn2nnc(C(=O)NCc3ccc4c(c3)OCO4)c2N)c(OC)c1,inactive
16,COc1ccccc1NC(=O)NNC(=O)c1ccc2ccccc2c1O,inactive
17,CC(=O)c1cccc(NC2c3ccccc3C(=O)N2Cc2ccc3c(c2)OCO3)c1 (configuration not stated),inactive
18,CS(=O)(=O)N(CC(=O)Nc1ccc(F)c(F)c1)c1cccc([N+](=O)[O-])c1,inactive
19,O=C1N/C(=N\N=C\c2cccs2)SC1Cc1cccc(Cl)c1 (configuration not stated),"inconclusive: 35.5 µM [inhibitor, single point]"
20,COc1ccc(NS(=O)(=O)c2cc(NC(=O)CNC(=O)c3cccc(OC)c3)ccc2C)cc1,"inconclusive: 15.8 µM [inhibitor, partial curve]"
21,CCC1CCc2nc3sc(C(=O)Nc4ccc(C)cc4C)c(N)c3cc2C1 (configuration not stated),"inconclusive: 0.631 µM [inhibitor, partial curve, poor fit]"

row,SMILES,Potency
1,COC(=O)Cn1ccc2cc(S(=O)(=O)N3CCCCCC3)ccc21,"inconclusive: 20 µM [inhibitor, single point]"
2,NC(=O)CCC(=O)N1CCCC(C(=O)c2ccc(C(F)(F)F)cc2)C1 (configuration not stated),inactive
3,COC(=O)C(NC(C)=O)(Nc1ccccn1)C(F)(F)F (configuration not stated),"inconclusive: 6.31 µM [inhibitor, partial curve, poor fit]"
4,CCCNc1nc2c(c(=O)[nH]c(=O)n2C)n1CCCc1ccccc1,inactive
5,CC(=Nc1ccccc1)c1sc2ccccc2c1O,inactive
6,CCOC(=O)c1cc(C)n(CC2CCC(C(=O)Nc3ccc(C)cc3)CC2)c1C (configuration not stated),"inconclusive: 5.01 µM [inhibitor, partial curve, poor fit]"
7,CCc1ccc(-n2c(=S)sc3c(=O)[nH]c(SCC(=O)NC4CCCCC4)nc32)cc1,inactive
8,O=c1[nH]c(CSc2ccccn2)nc2c1oc1ccccc12,inactive
9,CCc1ccc(NC(=O)c2ccc3nc(C(C)C)oc3c2)cc1,"inconclusive: 14.1 µM [inhibitor, partial curve, poor fit]"
10,CC(=O)c1ccc(OCC(O)CN2CCN(CCN3C(=O)c4cccc5cccc(c45)C3=O)CC2)cc1 (configuration not stated),"inconclusive: 12.6 µM [inhibitor, partial curve, poor fit]"
11,O=C(OCC(=O)N1CCCC1)c1ccccc1OCc1ccccc1,"inconclusive: 3.16 µM [inhibitor, single point]"
12,COC(=O)CNc1nc(OC)nc(N(C)C)n1,"inconclusive: 0.708 µM [inhibitor, full curve]"
13,O=C1CN(C(=O)c2ccc(Br)o2)C(c2ccccc2)c2cc(Cl)ccc2N1 (configuration not stated),"inconclusive: 12.6 µM [inhibitor, partial curve, poor fit]"
14,C/C(=N/Nc1ncc(Br)cn1)c1ccc(Br)cc1,"inconclusive: 35.5 µM [inhibitor, single point]"
15,Cc1cc(C)cc(N(C(=O)c2nsc(Cl)c2Cl)C(C(=O)NC2CCCC2)c2ccc(O)cc2)c1 (configuration not stated),"inconclusive: 35.5 µM [inhibitor, single point]"
16,CC[C@H](C)[C@@H](NC(=O)O[C@@H]1C(=O)c2cc(OC)ccc2O[C@H]1c1ccc(OC)c(Br)c1)C(=O)OC,"inconclusive: 14.1 µM [inhibitor, single point]"
17,O=C(Nc1ccccn1)c1ccc([N+](=O)[O-])o1,active: 10 µM
18,CCC(=O)N1CCc2cc(S(=O)(=O)CCC(=O)N3CCN(c4cccc(Cl)c4)CC3)ccc21,"inconclusive: 10 µM [inhibitor, partial curve, poor fit]"
19,COc1ccc(NC(=O)Nc2cccc3c2O[C@H](CN(C)C(=O)Nc2ccc(C(F)(F)F)cc2)[C@@H](C)CN([C@H](C)CO)C3=O)cc1,"inconclusive: 22.4 µM [inhibitor, single point]"
20,CCOC(=O)c1nn(-c2ccc(Cl)cc2)c2nc(-c3ccc(C)cc3)c(C#N)c(=O)n12,"inconclusive: 35.5 µM [inhibitor, single point]"
21,COc1cccc(CN(C)c2nc(-c3cccs3)nc3ccccc23)c1,"inconclusive: 35.5 µM [inhibitor, single point]"
